The values below come from ChEMBL document CHEMBL1201862, “PubChem BioAssay data set” (2004).

Structures are written as SMILES.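 Exposure lasted 48 hours, with cells grown in 96-well plates and compounds tested at five concentrations. Abbreviation: GI50, concentration required for 50% inhibition of growth.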 Active and inactive are the calls of the source. Rule as the data show it: active = GI50 up to about 1.1 µM and inactive = higher.

This experiment concerns NCI-H322M. Briefly: growth of human tumour cells (NCI), 48 h.
`CC(C)(C)OC(=O)N(CCCCN(CCCNC(=O)C(F)(F)F)C(=O)OC(C)(C)C)CCCNC(=O)C(F)(F)F`: the GI50 was inactive: > 100 µM.

For the molecule `CC(=O)Nc1ccc(-c2nc3ccccc3s2)cc1C`, the GI50 was inactive: 58.7 µM.

For the molecule `Cc1cc(Cl)nc2ccc(Cc3ccc4nc(Cl)cc(C)c4c3)cc12`, the GI50 was inactive: 46.2 µM.

With `CC(C)c1cc(C(F)(F)F)nc(NNc2nc(C(C)C)cc(C(F)(F)F)n2)n1`, the GI50 is inactive: 38 µM.

Regarding `CN(C)CC/C=C1\c2ccccc2Sc2ccc(Cl)cc21`, the GI50 is inactive: 11.6 µM.

`O=C(CCCCCNC(=O)c1ccc(Cl)cc1)NO`: the GI50 was inactive: 5.47 µM.

Consider `COc1ccc(C2=NN(C(=N)S)C(c3ccccc3)C2)cc1` (centres undefined), for which the GI50 was inactive: 69.8 µM.

As for `CCc1cccc(C(C)C)c1NC(=O)C(=O)C(C(=O)C(=O)OC)c1nc2ccccc2nc1O` (centres undefined), the GI50 is inactive: > 100 µM.

On to `Clc1ccc(C2SCc3nc4ccccc4n32)cc1Cl` (centres undefined), for which the GI50 is inactive: 22.3 µM.

In the case of `O=c1[nH]c2nccnc2c2c([N+](=O)[O-])cccc12`, the GI50 was inactive: > 100 µM.

Consider `CC(C)(C)OC(=O)NC(Cc1ccc(OC(C)(C)C)cc1)C(=O)N[C@H]1CCC[C@H]1C(=O)NC(Cc1ccccc1)C(=O)N1CCCC1C(N)=O` (some centres undefined), for which the GI50 is inactive: > 100 µM.

As for `CC1S/C(=N\N=C2/C(=O)Nc3ccc(Br)cc32)N(C2CCCCC2)C1=O` (centres undefined), the GI50 was inactive: 1.8 µM.

As for `CN(C(=O)C12C3C4C1C1C4(C(=O)C45C6C7C4C4C5C6C74C)C3C12C)C(C)(C)C` (centres undefined), the GI50 is inactive: > 100 µM.

Turning to `CCOC(=O)C1(Cc2ccc3c(c2)CCC3)Cc2cc3c(cc2C1=O)CCC3` (centres undefined), the GI50 was inactive: > 100 µM.

As to `O=P1(c2ccccc2)C(c2ccccc2)CCC1c1ccccc1` (centres undefined), the GI50 was inactive: 76 µM.

For the molecule `O=C(OCc1ccccc1C1CSCSC1)c1cc(C(=O)OCc2ccccc2C2CSCSC2)c(C(=O)OCc2ccccc2C2CSCSC2)cc1C(=O)OCc1ccccc1C1CSCSC1`, the GI50 was inactive: > 100 µM.

For `CC1CC[C@@]2(OC1)OC1C[C@H]3[C@@H]4CC=C5C[C@@H](OC6OC(CO)C(OC7OC(CO)C(O)C(O)C7O)C(O)C6OC6OC(C)C(O)C(O)C6O)CC[C@]5(C)[C@H]4CC[C@]3(C)C1[C@@H]2C` (some centres undefined), the GI50 was active: 0.867 µM.

In the case of `CNS(=O)(=O)NNS(=O)(=O)c1ccccc1`, the GI50 was inactive: > 100 µM.

On to `CC(C)C(Br)CCC1=CCC(Br)(Br)C1` (centres undefined), for which the GI50 is inactive: 16.8 µM.

As to `CNC(=O)CN(CC(N)=O)C(N)=O`, the GI50 was inactive: > 100 µM.

Regarding `O=C(N/N=C/c1ccc(O)cc1)NNCCO`, the GI50 is inactive: > 100 µM.

For the molecule `O=C(/N=N/C(=O)OCc1ccccc1)OCc1ccccc1`, the GI50 is inactive: > 100 µM.

For the molecule `O=CC1=C(C(=O)OC(c2ccccc2)c2ccccc2)N2C(=O)[C@@H](NC(=O)Cc3cccs3)[C@H]2SC1`, the GI50 is inactive: > 100 µM.

With `O=C1CC(c2ccc(O)cc2)C2(O1)C(=O)OC(C(O)CO)C2O` (centres undefined), the GI50 is inactive: > 100 µM.

On to `Cn1cnc([N+](=O)[O-])c1Sc1nccn1-c1cccc2ccccc12`, for which the GI50 is inactive: 25.4 µM.

Take `CCCCCCCCCC(=O)CC(=O)c1c(O)cccc1O`: the GI50 is inactive: 39.7 µM.

Consider `O=Cc1[nH]c(=O)[nH]c(=O)c1CCl`, for which the GI50 is inactive: > 100 µM.

Regarding `COc1ccc(-c2c(C#N)c(-c3ccc(C)cc3)n(NS(=O)(=O)c3ccccc3)c(=O)c2C#N)cc1`, the GI50 was inactive: > 100 µM.

For the molecule `O=C1C(=O)N(c2ccc(Cl)cc2Cl)C(=O)C(=O)C1c1nc2ccccc2o1`, the GI50 is inactive: > 100 µM.

Consider `O=c1oc(-c2ccccc2)cn1-c1ccccc1`, for which the GI50 is inactive: > 100 µM.

In the case of `CC1CNC(NS(=O)(=O)c2cc(C(=O)Nc3ccccc3)c(Cl)cc2S)=NN1` (centres undefined), the GI50 was inactive: 48.3 µM.

For `CN(C)CCCn1c(Cn2nc3ccccc3n2)nc2cc(C(F)(F)F)ccc21`, the GI50 was inactive: 29.4 µM.

With `CCCC(=O)c1ccc(=O)n(C)c1`, the GI50 is inactive: > 100 µM.

As to `O=C(NC(Cc1ccc(I)cc1)C(=O)O)c1ccc(Cl)cc1` (centres undefined), the GI50 was inactive: > 100 µM.

Take `C/C(=N\Nc1nc2ccccc2s1)c1ccc2ccccc2n1`: the GI50 was inactive: > 100 µM.

On to `O=C(Cc1nc2sc3c(c2c(=O)[nH]1)CCCC3)Nc1ccccc1`, for which the GI50 was inactive: > 100 µM.

As to `CCc1cn(C2CC(CO)C(CO)S2)c(=O)[nH]c1=O` (centres undefined), the GI50 is inactive: > 100 µM.

Regarding `COc1ccc(CC2NCCc3cc(OC)c(OC)cc32)cc1Br` (centres undefined), the GI50 is inactive: 49.5 µM.

Consider `NC(=O)c1sc2nc3ccccc3n2c1N`, for which the GI50 was inactive: 82.8 µM.

As for `CCN1c2ccccc2C(C(SC)S(=O)(=O)c2ccc(C)cc2)c2c1[nH]c(=O)n(C)c2=O` (centres undefined), the GI50 was inactive: > 100 µM.

As to `C=C1CCC(OC(C)=O)C2(C)C(OC(C)=O)CC3OC3(C)C2C(OC(C)=O)C2C(C)C(=O)OC2C1Cl` (centres undefined), the GI50 is inactive: > 100 µM.

As to `CC1=CP(=O)(OC(C)C)C=C(C)C1=C(Cl)Cl` (centres undefined), the GI50 was inactive: > 100 µM.

With `Cc1cn2c(/C=C3/C(=O)Nc4ccccc43)c(C)nc2s1`, the GI50 is inactive: 4.86 µM.

Take `OCC(O)C(O)C(O)C(O)c1nc2cc(Cl)ccc2[nH]1` (centres undefined): the GI50 was inactive: > 100 µM.

As to `Cc1ccc(S(=O)(=O)N/N=C2\CCC3(O)CC2(C)CCC2C3CC2(C)C)cc1` (centres undefined), the GI50 is inactive: 70.6 µM.

Consider `CC(=O)Nc1cccc(N2C(=O)/C(=C\c3cccc(Oc4ccccc4)c3)S(=O)(=O)C2c2ccccc2)c1` (centres undefined), for which the GI50 is inactive: > 100 µM.

Consider `C=CC(C)(C)c1cc([C@@H]2COc3cc(O)ccc3C2=O)c(O)c(O)c1OC`, for which the GI50 was inactive: 32.8 µM.

As to `O=C1Nc2cc([N+](=O)[O-])ccc2C(=O)N2CCC[C@@H]12`, the GI50 was inactive: > 100 µM.

With `O=C(/N=S(/NC(=O)c1ccccc1)C(Cl)(Cl)Cl)c1ccccc1` (centres undefined), the GI50 was inactive: 44.4 µM.

With `CCOC(=O)Nn1cnnc1Cc1ccccc1`, the GI50 was inactive: > 100 µM.

`CC/C(Cl)=N\OC(=O)Nc1ccc(F)cc1F`: the GI50 was inactive: 18.2 µM.

As for `CN1C(=O)C(C)(C)NS1(=O)=O`, the GI50 is inactive: > 100 µM.

`CCOC(=O)c1cc(-c2ccc(OC)c(OC)c2)c[nH]1`: the GI50 was inactive: > 10 µM.

With `CN1CCC2(c3ccccc3)CC(=O)/C(=C/c3ccc(Cl)c(Cl)c3)C1C2.[O-][Cl+3]([O-])([O-])O` (centres undefined), the GI50 was inactive: 5.18 µM.

`COC(=O)C1(C(=O)OC)N=C(C)OC1c1ccccc1O` (centres undefined): the GI50 was inactive: > 100 µM.

In the case of `COc1cccc(C2=NC(C(C)C)CO2)c1` (centres undefined), the GI50 was inactive: > 100 µM.

As to `O=C(/C=C/c1csc(-c2ccccc2)n1)NCc1ccc(C(=O)NCc2ccccc2)cc1`, the GI50 is inactive: > 100 µM.

Take `CC12N=NNC1C(=O)NC2=O` (centres undefined): the GI50 was inactive: > 100 µM.

With `Nc1ncc(CN2CCCC2)c(-c2ccccc2O)n1`, the GI50 was inactive: > 750 µM.

In the case of `CC1(C)CC(=O)C(=CNC(=O)c2ccncc2)C(=O)C1`, the GI50 was inactive: > 100 µM.

Turning to `Cc1n(-c2ccccc2)c2c([n+]1Cc1ccc([N+](=O)[O-])cc1)C(=O)c1ccccc1C2=O`, the GI50 was inactive: 2.49 µM.

With `N#CC1(C#N)C(c2ccccc2)C=CC12OCCCO2` (centres undefined), the GI50 was inactive: 48 µM.

In the case of `COc1cc(/C=C/c2sc3ccccc3[n+]2C)ccc1N(C)C`, the GI50 is inactive: 20.4 µM.

In the case of `COc1cc2c(cc1OC)C(Cc1ccccc1CCCl)=NCC2`, the GI50 is inactive: > 100 µM.

As to `CC1=NN(C(=O)Cc2ccccc2)C(=O)/C1=C/c1c(O)ccc2ccccc12`, the GI50 is inactive: > 100 µM.

On to `CSc1ncc2c(C#N)c3n(C)c4ccccc4n3c(=O)c2n1`, for which the GI50 is inactive: > 100 µM.

On to `COC1=C2CC(C)CC(OC)C(OC(=O)CCCN)C(C)/C=C(\C)C(OC(N)=O)C(OC)/C=C\C=C(/C)C(=O)NC(=CC1=O)C2=O` (centres undefined), for which the GI50 was inactive: 22.5 µM.

Turning to `Cc1ccc2nc(NC(=O)C(=O)C(C#N)c3ccc(Cl)cc3)sc2c1` (centres undefined), the GI50 was inactive: > 50 µM.

`NCCN1C(=O)C2C3c4ccccc4C(c4ccccc43)C2C1=O` (centres undefined): the GI50 was inactive: > 100 µM.

With `Cc1ccc(/C=N/NS(=O)(=O)c2ccccc2)cc1C`, the GI50 is inactive: > 100 µM.

Regarding `O=[N+]([O-])c1cc2c(cc1O)[nH]c1cccc([N+](=O)[O-])c12`, the GI50 was inactive: > 100 µM.

Take `Cc1nnc(N/N=C(/C(=O)C(C#N)c2ccc(Cl)cc2)C(C#N)c2ccc(Cl)cc2)n1N` (centres undefined): the GI50 was inactive: 16.3 µM.

As for `COc1cccc2c1C(=O)c1c(O)c3c(c(O)c1C2=O)C[C@@](O)(C(=O)CO)C[C@@H]3OC1CC(N)C(OC)C(C)O1` (some centres undefined), the GI50 is active: 0.362 µM.

Take `O=S(=O)(O)C(Cc1nc2ccccc2[nH]1)S(=O)(=O)OCCC1S(=O)(=O)OCCOS1(=O)=O` (centres undefined): the GI50 was inactive: > 100 µM.

As to `C/C(=N\Nc1nc2ccccc2o1)c1cccc[n+]1[O-]`, the GI50 was inactive: 19.8 µM.

In the case of `CN1CC[C@]2(C)c3cc(O)ccc3CC3CCCC1C32C` (some centres undefined), the GI50 is inactive: > 100 µM.

With `COC(=O)C1CC(OC(C)=O)C=C2C(=O)CCC21` (centres undefined), the GI50 is inactive: 30.3 µM.

For the molecule `CC12CC[C@H](O)C(C)(C)[C@H]1CC[C@](C)(O)C2COc1ccc2ccc(=O)oc2c1` (some centres undefined), the GI50 was inactive: > 100 µM.

Regarding `CS(=O)(=O)Oc1cccc(/C=N/N=C(\N)NO)c1`, the GI50 is inactive: 22.3 µM.

As for `O=C1/C(=C/c2ccc([N+](=O)[O-])cc2)CCCc2ccccc21`, the GI50 was inactive: > 100 µM.

On to `CC(C)=CCCc1c(C)ccc2c1C(=O)C(=O)C(C(C)C)=C2`, for which the GI50 is inactive: > 22 µM.

Take `CCOC(=O)c1[nH]c(Br)c(-c2ccc(OC)c(OC)c2)c1Br`: the GI50 was inactive: > 10 µM.

With `Cc1cc(S(=O)(=O)Nc2nc(N)n[nH]2)c(S)cc1Cl`, the GI50 was inactive: > 10 µM.

Regarding `CC(C)Cc1cc2c(cc1O)CCC1C2CC[C@@]2(C)C1CC[C@@H]2O` (some centres undefined), the GI50 was inactive: 12.3 µM.
